From PubChem BioAssay AID588453 (National Center for Advancing Translational Sciences (NCATS), 2011)
Hit rate of the full screen: of about 390,000 compounds, about 4,000 (1%) were called active. The shares of active, inactive and inconclusive entries below differ from those in the screen. Calls follow the shape of the dose curve; as a rule, active = well fitted inhibition curve with a large enough effect; inconclusive = small, poorly fitted or top-dose-only effect; inactive = no such curve, though single readings can be large or run the other way. Potencies of inconclusive entries are doubtful fits and often do not repeat.

Target: Thioredoxin reductase 1, cytoplasmic (Rattus norvegicus) (UniProt O89049)
Experiment: qHTS Assay for Inhibitors of Mammalian Selenoprotein Thioredoxin Reductase 1 (TrxR1): qHTS; also: nearly all actives have a fitted effect of over 65% in size
Details: recombinant rTrxR1, NADPH fluorescence consumption, selenite substrate; series mostly up to 114 µM
Summary of the method: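 Rat TrxR1 (90 nM in the dispensed reagent) was pre-reduced with 400 uM NADPH for 5 min at room temperature, then incubated with compound for 15 min. After 400 uM selenite was added, NADPH fluorescence (Ex 340/Em 450 nm) was followed for 8 min.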
Potency is read from the fitted curve at half-maximal effect; tags tell the direction and shape of the fitted curve.

UniProt O89049, sequence (O89049 whole entry, looked up): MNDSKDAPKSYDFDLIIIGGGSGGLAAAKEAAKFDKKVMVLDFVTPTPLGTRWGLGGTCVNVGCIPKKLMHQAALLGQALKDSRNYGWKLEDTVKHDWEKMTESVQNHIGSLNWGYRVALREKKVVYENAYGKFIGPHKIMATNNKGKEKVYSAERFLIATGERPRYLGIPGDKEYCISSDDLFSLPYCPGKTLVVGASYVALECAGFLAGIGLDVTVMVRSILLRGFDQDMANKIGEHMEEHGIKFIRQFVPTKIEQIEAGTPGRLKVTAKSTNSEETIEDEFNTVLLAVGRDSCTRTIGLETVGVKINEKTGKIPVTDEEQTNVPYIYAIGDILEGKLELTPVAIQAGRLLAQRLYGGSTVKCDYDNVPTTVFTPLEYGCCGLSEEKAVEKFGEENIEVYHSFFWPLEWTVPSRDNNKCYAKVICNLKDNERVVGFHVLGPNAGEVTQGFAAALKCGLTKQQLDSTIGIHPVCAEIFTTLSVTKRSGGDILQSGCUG

SMILES	Potency
CC(C(=O)NC1C(=O)N2C(C(=O)O)=C(CSc3nnnn3C)CSC12)n1cc(Br)cn1 (configuration not stated)	inconclusive: 35.5 µM [inhibitor, partial curve]
O=C1N=C(N2C=CC(=C3C=CNC=C3)C=C2)/C(=C/N=NC(=O)c2ccccc2O)S1	inconclusive: 89.1 µM [inhibitor, single point]
N#CC1=C(N)C2=CCCC[C@H]2[C@H](c2ccccc2)C1(C#N)C#N	inconclusive: 2 µM [inhibitor, partial curve, poor fit]
Cc1cc(NC(=O)CSc2nnc(-c3ccoc3C)o2)no1	inactive
Cc1oc(-c2cc(F)cc(F)c2)nc1CN1CCN(C(=O)c2ccco2)CC1	inconclusive: 20 µM [inhibitor, partial curve]
Cc1occc1C(=O)NCc1ccccn1	inconclusive: 44.7 µM [inhibitor, single point]
CCCn1c(CN2CCN(C(=O)c3ccco3)CC2)nc2cc(S(=O)(=O)N(C)C)ccc21	active: 20 µM
Cc1ccc2[nH]c(=O)c(CN(Cc3ccco3)S(=O)(=O)c3c(C)ccc4nsnc34)cc2c1	active: 28.2 µM
COc1ccc(S(=O)(=O)n2nc(OC(=O)c3ccccc3Br)cc2N)cc1	inconclusive: 28.2 µM [inhibitor, single point]
CCN(CC)NC(=S)Nc1ccccc1	inactive
CN(C)CC1CCC/C(=C/c2ccc(Cl)cc2)C1=O (configuration not stated)	inconclusive: 0.501 µM [inhibitor, full curve, poor fit]
Cc1ccc(O)c(NC(=O)CCS(=O)(=O)c2nc(-c3ccc4c(c3)OCO4)cc(C(F)(F)F)n2)c1	inconclusive: 28.2 µM [inhibitor, full curve, poor fit]
Cc1ccc(/C=C2/C(=O)c3ccc(C(=O)O)cc3C2=O)o1	inconclusive: 14.1 µM [inhibitor, partial curve]
COC(=O)c1c(NC(=O)/C=C/C(=O)O)sc(C)c1-c1ccc(C)c(C)c1	inactive
O=C(Nc1ccc(N2CCN(C(=O)c3ccccc3)CC2)c(Cl)c1)c1ccco1	inconclusive: 70.8 µM [inhibitor, single point]
CCN(CC)c1ccc(/C=N/NC(=O)c2ccco2)c(O)c1	inconclusive: 44.7 µM [inhibitor, partial curve, poor fit]
O=C(CCN1CCC(c2ccccc2)C1)c1cccs1 (configuration not stated)	inconclusive: 0.316 µM [inhibitor, full curve, poor fit]
CSc1ccc(CCNC(=O)c2cc3c(-c4ccccc4F)nn(C)c3s2)cc1	inactive
CC(C)(C)C(=O)Cn1ncc(Cl)c(Cl)c1=O	inconclusive: 15.8 µM [inhibitor, full curve]
CCOC(=O)C1C2C=CC3(CN(Cc4ccco4)C(=O)C13)O2 (configuration not stated)	inconclusive: 25.1 µM [inhibitor, full curve]
Cc1cc(=O)oc2cc(OCC(=O)Nc3nnc(C(C)C)s3)ccc12	inactive
O=C1OC(N2CCN(C(=O)C3CCCO3)CC2)c2ccccc21 (configuration not stated)	inconclusive: 79.4 µM [inhibitor, single point]
Fc1ccc2c(c1)C(c1cccnc1)=NNC(c1cccs1)=N2	inconclusive: 39.8 µM [inhibitor, single point]

SMILES	Potency
Cc1cc(-c2ccc(C(C)C)c(S(=O)(=O)NCc3ccco3)c2)on1	inconclusive: 56.2 µM [inhibitor, single point]
CC(=O)c1c(N2CCN(Cc3ccc4c(c3)OCO4)CC2)nc(=S)n(-c2ccccc2)c1C	inconclusive: 20 µM [inhibitor, partial curve, poor fit]
CCn1c(C)nc([N+](=O)[O-])c1C(=O)O	inactive
C[C@H](CO)N1C[C@H](C)[C@@H](CN(C)C(=O)Nc2ccc(C(F)(F)F)cc2)Oc2ccc(NC(=O)c3ccncc3)cc2C1=O	inconclusive: 17.8 µM [inhibitor, partial curve, poor fit]
CCN1CCN(Cc2c(O)ccc3c(C)cc(=O)oc23)CC1	inconclusive: 89.1 µM [inhibitor, single point]
COc1ccc(CNC(=O)C(c2cccs2)N(Cc2ccco2)C(=O)Cc2cccs2)cc1 (configuration not stated)	inconclusive: 31.6 µM [inhibitor, partial curve, poor fit]
NC(=S)NN=C1CCCCCCCCCC1	inconclusive: 79.4 µM [inhibitor, partial curve, poor fit]
O=S(=O)(c1ccc(OCC2CO2)cc1)c1ccc(OCC2CO2)cc1 (configuration not stated)	inconclusive: 17.8 µM [inhibitor, full curve]
COc1ccc(-c2cc(C(F)(F)F)n3nc(C(=O)N4CCCCC4)cc3n2)cc1OC	inactive
C=CCN1C(=O)/C(=c2\sc3nc(=O)c(Cc4ccc(OC)c(OC)c4)nn3c2=O)c2ccccc21	inconclusive: 11.2 µM [inhibitor, partial curve, poor fit]
Cc1ccc(S(=O)(=O)N2CCN(Cc3nc4ccccc4[nH]3)CC2)cc1C	inconclusive: 70.8 µM [inhibitor, single point]
CCN(CC)C(=O)Cn1cc(C(=O)C(=O)N2CCN(c3ccc([N+](=O)[O-])cc3)CC2)c2ccccc21	inconclusive: 70.8 µM [inhibitor, partial curve]
CCOC(=O)C1=C(C)OC(N)=C(C#N)C1c1ccoc1 (configuration not stated)	inconclusive: 50.1 µM [inhibitor, partial curve, poor fit]
CCOC(=O)c1ccc(N2C(=O)c3n[nH]c(-c4ccco4)c3C2c2ccc(F)cc2)cc1 (configuration not stated)	inconclusive: 44.7 µM [inhibitor, partial curve]
CN(C)c1ccc(/C=N/n2c(COc3ccccc3)n[nH]c2=S)cc1	inconclusive: 79.4 µM [inhibitor, partial curve]
Cc1cccc(CC(=O)NCCc2csc(-c3ccc(C(F)(F)F)cc3)n2)c1	inactive
Cc1ccc(-c2csc3n[nH]c(=S)n23)cc1	inconclusive: 12.6 µM [inhibitor, partial curve]
O=C(Oc1csc(=S)n1C(=O)c1ccccc1)c1ccccc1	inconclusive: 10 µM [inhibitor, partial curve]
Cc1noc(C)c1C(=O)N(CC(=O)Nc1ccc(Cl)c(C(F)(F)F)c1)Cc1ccco1	inconclusive: 56.2 µM [inhibitor, single point]
CCc1nnc(SCC(=O)Nc2ccc(F)cc2)o1	inconclusive: 39.8 µM [inhibitor, single point]
O=C(c1ccco1)N1CCN(C(c2ccccc2Cl)c2nnnn2Cc2cccs2)CC1 (configuration not stated)	inconclusive: 31.6 µM [inhibitor, single point]
O=C1C(=O)N(CCN2CCOCC2)C(c2ccccn2)/C1=C(/O)c1ccccc1 (configuration not stated)	active: 17.8 µM
O=C(COC(=O)CSc1ccc([N+](=O)[O-])cc1)NCc1ccco1	inconclusive: 70.8 µM [inhibitor, partial curve]

SMILES	Potency
O=C(c1noc2c1CCCC2)N1CCN(Cc2ccccc2)CC1	inconclusive: 35.5 µM [inhibitor, single point]
Cc1nn(C)c(Cl)c1CN1CCC(CO)(CCOc2ccccc2)CC1	inconclusive: 0.891 µM [inhibitor, partial curve, poor fit]
Cc1ccc(-c2nc(S(=O)(=O)c3ccc(C)cc3)c(N3CCCCCC3)o2)cc1	inactive
O=C(c1cccnc1)N1CCN(c2ccc(Cl)cc2)CC1	inactive
Oc1ccc(C(=S)N2CCN(c3cccc(Cl)c3)CC2)cc1	inconclusive: 20 µM [inhibitor, partial curve, poor fit]
O=C(NC1=C(Nc2ccc(F)cc2)C(=O)c2ccccc2C1=O)c1ccc(Cl)cc1	inconclusive: 56.2 µM [inhibitor, partial curve, poor fit]
Cc1nc(C(C)(C)O)n(-c2ccccc2)n1	inactive
COc1cccc(OC)c1OCCN(C)C	inactive
O=S(=O)(NC1CCN(S(=O)(=O)c2c(F)cccc2F)C1)c1ccc2c(c1)OCCO2 (configuration not stated)	inactive
COc1cccc(C(Nc2ccccn2)c2oc(CO)cc(=O)c2O)c1 (configuration not stated)	active: 70.8 µM
CN(C)C(=S)N=Nc1[nH]c2ccccc2c1O	inconclusive: 4.47 µM [inhibitor, partial curve, poor fit]
CN(C)/C=C1\NC(=S)N(c2ccc(Cl)cc2)C1=O	inactive
CCOC(=O)c1ccc(NC(=S)NC(=O)C2CCCC2)cc1	inconclusive: 50.1 µM [inhibitor, partial curve]
CC(=O)CC(=O)Nc1ncc(C(F)(F)F)cc1Cl	inactive
Cc1c(Cl)cnc(NC(=O)COC(=O)CCc2nc3ccccc3s2)c1Cl	inactive
CC1CCN(S(=O)(=O)c2ccc3c(c2)N(CC(=O)O)C(=O)CO3)CC1	inactive
O=C1CCC[C@@H]2C[C@@]3(C[C@@H]4CCN1[C@H]24)Nc1cc([N+](=O)[O-])ccc1NC3=NCc1ccccc1	inactive
CC(C)N(C(=O)CSc1nc2ccccc2n1-c1ccccc1)C(C)C	inactive
C#CCOCCOCCOCCNc1nc(OC)nc(N2CCN(C(=O)[C@H](CCC(=O)O)n3cc(C(N)CO)nn3)CC2)n1 (some centres not stated)	inconclusive: 89.1 µM [inhibitor, single point]
Cc1ccccc1N1C(S)=C(C#N)C(=O)NC12CCCCC2	inconclusive: 50.1 µM [inhibitor, partial curve]
CC(=O)OCC1=C(C(=O)O)N2C(=O)[C@@H](NC(=O)Cc3ccccc3)[C@H]2SC1	inconclusive: 12.6 µM [inhibitor, partial curve]
